Consider five molecules from the supplement of paper PMC4604168 (melanoma cell lines).

The structures appear in SMILES notation. Some of the results follow. Most values come without repeats; read them as rough.
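Further: cell number obtained by counting DAPI-stained nuclei in high-throughput microscope images with image analysis software, screen run in 1,536-well plates.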

The assay relates to UACC257. Kind of assay: cell count relative to DMSO control; melanoma cells; higher = more viable cells. The note with it: library dose: low library concentration; 72 h.
On to `O=C(Nc1cc(C(F)(F)F)cc(C(F)(F)F)c1)c1cc(Cl)ccc1O` + O=C(Nc1cccc(Cl)c1)Nc1ncc(CCNc2ncnc3ccsc23)s1 [SNS314] (first compound 0.016 µM, partner dose 0.0008 µM), for which the cell count was 81.8%. As for `O=C(O)[C@@H]1[O][Sb](=[O])([O][Sb]2(=[O])[O][C@H]([C@H](O)CO)[C@H](O)[C@H](C(=O)O)[O]2)[O][C@H]([C@H](O)CO)[C@@H]1O` (stereo not given in full) [stibogluconate] + CCc1ccc(CCOc2ccc(CC3SC(=O)NC3=O)cc2)nc1 [pioglitazone] (first compound 2 µM, partner dose 2 µM), the figure is 121%; as for `O=C(O)[C@@H]1[O][Sb](=[O])([O][Sb]2(=[O])[O][C@H]([C@H](O)CO)[C@H](O)[C@H](C(=O)O)[O]2)[O][C@H]([C@H](O)CO)[C@@H]1O` (stereo not given in full) [stibogluconate] + O=C(O)C(=O)Nc1sc2c(c1C(=O)O)CCNC2 [TCS401] (first compound 2 µM, partner dose 1.66667 µM), 104%. As for `O=C(O)c1ccc2c(c1)nc(Nc1cccc(Cl)c1)c1ccncc12` + CC1(C)NC(=O)N(c2ccc([N+](=O)[O-])c(C(F)(F)F)c2)C1=O [nilutamide] (first compound 0.4 µM, partner dose 1 µM), the figure is 98.2%; as for `O=C(O)c1ccc2c(c1)nc(Nc1cccc(Cl)c1)c1ccncc12` + Oc1nc(-c2ccc(C(F)(F)F)cc2)nc2c1CSCC2 [XAV939] (first compound 0.4 µM, partner dose 2 µM), 100%.
